# Laboratory results published in the supplement of paper PMC6135742.
# Where a name gives a salt, the structure may show the parent alone. Whole data set: some 2,600 compounds, median “MBP+ mature oligodendrocyte number relative to DMSO vehicle control” near -0.34, cut for the highest 2% near 13. The list shows a part of the results.
# Test system: jimpy (Plp1 jimpy) mouse iPSC-derived oligodendrocyte progenitor cells
# Assay: MBP+ mature oligodendrocyte number relative to DMSO vehicle control (SDs above negative control mean); higher = more surviving jimpy oligodendrocytes (rescue)
# Conditions: 10 µM; 3 days
# 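Note: 10 µM single dose with 3-day oligodendrocyte differentiation.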
row,Structure (SMILES),MBP+ mature oligodendrocyte number
1,CC(N)=NCCCC[C@H](N)C(=O)O [L-N6-(1-Iminoethyl)lysine hydrochloride],-0.206
2,Cc1ccc(O)c(N=Nc2ccccc2)n1,-0.318
3,COC(c1ccccc1)(c1ccccc1)[C@H](Oc1nc(C)cc(C)n1)C(=O)O [Ambrisentan],0.115
4,COC(=O)C1=C(C)NC(C)=C(C(=O)OCCN2CCN(C(c3ccccc3)c3ccccc3)CC2)C1c1cccc([N+](=O)[O-])c1 (stereo not given) [Manidipine],< -4.81
5,COC(=O)C1=C(C)NC(C)=C(C(=O)OCCN2CCN(C(c3ccccc3)c3ccccc3)CC2)C1c1cccc([N+](=O)[O-])c1 (stereo not given) [Manidipine 2HCl],< -4.81
6,CC(C)N(C[C@H]1O[C@@H](n2cnc3c(N)ncnc32)[C@H](O)[C@@H]1O)[C@H]1C[C@@H](CCc2nc3cc(C(C)(C)C)ccc3[nH]2)C1,-3.14
7,COC(=O)C[C@H](NC(=O)[C@H](C)NC(=O)[C@@H](NC(=O)OCc1ccccc1)C(C)C)C(=O)CF,1.89
8,CC(=O)Nc1ccccc1 [Acetanilide],0.619
9,COc1ccc(/C=C/c2nc(NCCCN(C)C)c3ccccc3n2)cc1,< -3.85
10,C[N+]1(C)[C@@H]2C[C@@H](OC(=O)C(O)(c3cccs3)c3cccs3)C[C@H]1[C@@H]1O[C@@H]12 [Tiotropium Bromide hydrate],-0.164
11,CC(C)(C)C(=O)Oc1ccc(S(=O)(=O)Nc2ccccc2C(=O)NCC(=O)O)cc1 [Sivelestat sodium salt hydrate],-0.167
12,CSc1ccc2c(c1)C(N1CCN(C)CC1)Cc1ccccc1S2 (stereo not given) [Methiothepin mesylate],-3.89
13,CC(C(=O)O)c1ccc2c(c1)Cc1cccnc1O2 (stereo not given) [Pranoprofen],4.84
14,Nc1nc2c(c(=O)[nH]1)C[C@@H](CCc1ccc(C(=O)N[C@@H](CCC(=O)O)C(=O)O)cc1)CN2 [Lometrexol hydrate],0.225
15,CC1(C)S[C@@H]2[C@H](NC(=O)[C@H](NC(=O)N3CCNC3=O)c3ccccc3)C(=O)N2[C@H]1C(=O)O [Azlocillin sodium salt],0.342
16,CC(C)c1ccc2oc3nc(N)c(C(=O)O)cc3c(=O)c2c1 [Amlexanox],-0.786
17,CCn1c2ccccc2c2cc(Nc3ccnc(NCCCN4CCOCC4)n3)ccc21,< -6.35
18,O=C1[C@H](Cc2ccc(O)cc2)N2C(=O)CCN(C(=O)NCc3ccccc3)[C@H]2CN1Cc1cccc2ccccc12,< -6.01
19,Nc1nc2c(ncn2[C@@H]2O[C@H](CO)[C@@H](O)[C@H]2O)c(=O)[nH]1 [Guanosine],1.18
20,Cn1cc(-c2ccc3ncc(Cc4ccc5ncccc5c4)n3n2)cn1,-4.5
